The campaign covered roughly 320,000 compounds. About 7,600 (2.4%) were called active. Inconclusive means that the source gave no clear call. Such entries were picked first, then a sample of the others. The call rests on the fitted dose curve; in most records, active means well fitted activation curve with a large enough effect; inconclusive means small, poorly fitted or top-dose-only effect; inactive means no such curve, though single readings can be large or run the other way. No potency is given beside an inconclusive call; the fits are too rough.
Assay: qHTS Assay for NPC1 Promoter Activators; further: nearly all actives have a fitted effect of over 60% in size;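 on activation: reporter is driven by a mutant NPC1 promoter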
Details: Huh7 NPC1 promoter luciferase reporter, 24 h; series mostly up to 9.22 µM
Procedure, shortened: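 Stable NPC1-promoter luciferase Huh7 line; cpd (DMSO) 24 h, 37 °C, 5% CO2; Amplite luciferase reagent 10 min RT; luminescence readout. qHTS format.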
Potency means the concentration at half of the fitted maximal effect; tags describe the fitted curve by direction and shape.

With `CN1CCN(NC(=O)c2cccc(F)c2)CC1` as the compound, how does the Potency read?
The Potency was “inactive”.

Which Potency does the source give for `Cc1cc(NC(=O)c2ccc(NC(=O)C3CCCO3)cc2)ccc1Br` (centres undefined) here?
The Potency was inconclusive [activator, partial curve].

Which Potency does the source give for `Cc1ccsc1C(=O)OCC(=O)c1cc2ccccc2o1` here?
The Potency was inconclusive [activator, partial curve].

For `O=C(COc1ccc(C(=O)c2ccccc2)cc1)NCC(=O)Nc1ccccc1Br`, which Potency is on record?
Its Potency is “inactive”.

Which Potency does the source give for `COC(=O)c1ccc(NC(=O)c2ccccc2NS(C)(=O)=O)cc1` here?
The Potency was “inactive”.

For `Cc1ccc2nc(-c3cccc(N)c3)oc2c1`, which Potency is on record?
The Potency was active: 0.891 µM.

For `CCn1cc(C(=O)NC2CCC(C)CC2)c(=O)c2cc(S(=O)(=O)N3CCCCC3)ccc21` (centres undefined), which Potency is on record?
Its Potency is inconclusive [activator, partial curve].

Which Potency does the source give for `Cc1c(C(=O)NCc2ccco2)sc2nc(-c3ccccc3)cn12` here?
The Potency was inconclusive [activator, single point].

With `CC(C)(C)c1ccc(/C=N/NC(=S)Nc2cccnc2)cc1` as the compound, how does the Potency read?
The Potency was inconclusive [activator, partial curve].

For `CCC(=O)N1N=C(c2ccc(NS(C)(=O)=O)cc2)CC1c1ccc(N(C)C)cc1` (centres undefined), which Potency is on record?
Its Potency is inconclusive [activator, partial curve].

With `Cc1ccc(NC(=O)c2nc3nccc(C)n3n2)c(C)c1` as the compound, how does the Potency read?
Its Potency is inconclusive [activator, partial curve].

For `COc1cccc(OCc2cc(C(=O)NC3CCOCC3)no2)c1`, which Potency is on record?
Its Potency is inconclusive [activator, single point].

With `CCCc1cc(=O)oc2c(C)c(OCC(=O)Nc3ccccn3)ccc12` as the compound, how does the Potency read?
Its Potency is inconclusive [activator, full curve, poor fit].

Which Potency does the source give for `COc1ccc2nc(SCc3ccccc3C)nc(C)c2c1` here?
Its Potency is inconclusive [activator, partial curve].

Which Potency does the source give for `Cc1ccc(OCC(=O)Nc2ccc(F)cc2)cc1C` here?
The Potency was “inactive”.

For `Cc1c(/C(O)=C2/C(=O)C(=O)N(Cc3cccnc3)C2c2ccccn2)cnn1-c1ccccc1` (centres undefined), which Potency is on record?
The Potency was “inactive”.

Which Potency does the source give for `CCc1ccc([C@@H]2CC=C(C(=O)O)[C@H](c3ccc(F)cc3)N2S(=O)(=O)c2ccc(C)cc2)cc1` here?
The Potency was “inactive”.

Which Potency does the source give for `O=C(NC(=S)NC1CCCCC1)c1ccccc1` here?
Its Potency is inconclusive [activator, partial curve].

Which Potency does the source give for `COc1ccccc1C(=O)Nc1cc2cc(Cl)ccc2oc1=O` here?
The Potency was inconclusive [activator, partial curve].

Which Potency does the source give for `COc1cccc(NC(=O)CN(C)C(=O)c2sc3cc(Cl)ccc3c2Cl)c1` here?
The Potency was “inactive”.

For `Cc1ccc(C(=O)Cc2nc3ccccc3[nH]2)cc1`, which Potency is on record?
Its Potency is active: 2 µM.

With `Cc1cccc(NC(=O)CCCc2ccccc2)c1` as the compound, how does the Potency read?
Its Potency is inconclusive [activator, partial curve].

With `COc1cc(OC)cc(C(=O)NCC2CCCN(C(=O)c3oc(C)cc3C)C2)c1` (centres undefined) as the compound, how does the Potency read?
Its Potency is inconclusive [activator, single point].

For `COC(=O)C(C)n1nnc2sc(-c3ccccc3)cc2c1=O` (centres undefined), which Potency is on record?
The Potency was inconclusive [activator, partial curve].

Which Potency does the source give for `COc1ccc(C(=O)COC(=O)c2ccco2)cc1` here?
The Potency was inconclusive [activator, single point].

With `CCCc1c(-c2ccc(O)cc2)nn(-c2ccc(O)cc2)c1-c1ccc(O)cc1` as the compound, how does the Potency read?
Its Potency is “inactive”.

With `Cc1cc(NC(=O)c2cccc(Cl)c2)n[nH]1` as the compound, how does the Potency read?
Its Potency is active: 2.82 µM.

With `CS(=O)(=O)c1ccc2sc(NC(=O)c3cc4ccccc4o3)nc2c1` as the compound, how does the Potency read?
Its Potency is inconclusive [activator, single point].

Which Potency does the source give for `COc1ccccc1OCc1cc(-c2ccccc2)no1` here?
The Potency was active: 3.55 µM.

For `O=C(Nc1ccc(Nc2ccccc2)cc1)Nc1ccccc1Cl`, which Potency is on record?
The Potency was inconclusive [activator, partial curve].

For `Cc1cc(Nc2ccccc2)n(-c2ccc(C(=O)O)cc2)n1`, which Potency is on record?
Its Potency is “inactive”.

With `O=C(COC(=O)C12CC3CC(CC(O)(C3)C1)C2)Nc1cccc(Br)c1` as the compound, how does the Potency read?
The Potency was “inactive”.

With `O=C(CCS(=O)(=O)c1ccccc1)Nc1ncc([N+](=O)[O-])s1` as the compound, how does the Potency read?
Its Potency is “inactive”.

With `COc1cccc(/C(C)=N/N=C(\C)c2cccc(OC)c2)c1` as the compound, how does the Potency read?
The Potency was inconclusive [activator, partial curve].

For `CCOc1ccc2nc(N3CCCC(C(=O)NC4CCCC4)C3)sc2c1` (centres undefined), which Potency is on record?
Its Potency is inconclusive [activator, partial curve].

Which Potency does the source give for `Cc1cccc(Nc2ncc3c(n2)CC(C)CC3=O)c1` (centres undefined) here?
The Potency was active: 3.55 µM.

For `Cc1ccccc1N=C1NN=C(c2ccccc2F)CS1`, which Potency is on record?
Its Potency is inconclusive [activator, single point].

For `CCCOc1ccc(-c2nc(=S)[nH][nH]2)cc1`, which Potency is on record?
Its Potency is “inactive”.

Which Potency does the source give for `Cc1ccc(C)c(NC(=O)C(c2ccccc2)N2CCOCC2)c1` (centres undefined) here?
The Potency was “inactive”.

For `CCOc1ccc(NC(=O)c2[nH]c(C)c(C(C)=O)c2C)cc1`, which Potency is on record?
The Potency was inconclusive [activator, partial curve].

For `O=[N+]([O-])c1ccc(/C=C/c2ccc3ccccc3n2)cc1`, which Potency is on record?
Its Potency is inconclusive [activator, full curve, poor fit].

With `Cc1ccc(OCCNS(=O)(=O)c2cccs2)cc1` as the compound, how does the Potency read?
The Potency was inconclusive [activator, single point].

With `CCOc1ccccc1Nc1ncnc2c1cnn2-c1ccccc1` as the compound, how does the Potency read?
The Potency was “inactive”.

For `COc1ccc2[nH]c(=O)c(-c3nnn(-c4ccccc4)n3)cc2c1`, which Potency is on record?
The Potency was inconclusive [activator, partial curve].

For `CCOC(=O)N/N=C\c1ccc([N+](=O)[O-])s1`, which Potency is on record?
Its Potency is “inactive”.

Which Potency does the source give for `CN1CCN(Cn2cc(/C=C/C(=O)c3ccccc3)c3ccccc32)CC1` here?
Its Potency is inconclusive [activator, partial curve].

With `C/C(=N\NC(=O)OC(C)(C)C)c1ccccc1Br` as the compound, how does the Potency read?
The Potency was inconclusive [activator, single point].

Which Potency does the source give for `Cc1ccc(C)c(C(=O)COC(=O)c2cccc(N3C(=O)c4c(C)nc5ccccc5c4C3=O)c2)c1` here?
The Potency was inconclusive [activator, partial curve].

With `CCCCN(CC)C(=O)c1cc2cc3ccc(OC)cc3nc2o1` as the compound, how does the Potency read?
The Potency was inconclusive [activator, single point].

Reference: PubChem BioAssay AID485313 (National Center for Advancing Translational Sciences (NCATS), 2010)
